Data as given in PubChem BioAssay AID445 (National Center for Advancing Translational Sciences (NCATS), 2006).
Hit rate of the full screen: of about 110,000 compounds, about 40 (0.04%) were called active. Inconclusive means that the source gave no clear call. Such entries were picked first, then a sample of the others. The call rests on the fitted dose curve; in most records, active means well fitted curve in the direction sought with a large enough effect in the signal ratio (not every such curve was filed as active); inconclusive means small, poorly fitted or top-dose-only effect, or a change in a side signal; inactive means flat fitted curve, though single readings scatter; the % refers to the signal ratio. Where the call is inconclusive, the potency comes from a doubtful curve fit.

Test: IkB Signaling;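 on IkBa stabilization activation: 0% = basal untreated cells and 100% = reference inhibitor full response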
Details: ABC-DLBCL IkBa-CBG/CBR dual luciferase ratio (green luciferase fused to IkBa over red control in OCI-Ly3 lymphoma cells), 4 h; IkBa stabilization activation: at 57.1 µM (top of the series), scaled: untreated 0%, proteasome inhibitor 100% unless noted
In short: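 Luminescence ratio of IκBα-fused green versus native red beetle luciferase in OCI-Ly3 cells, 4 h post-doxycycline with compound; red signal alone, scaled from basal (0%) to zero light (-100%), flagged nonspecific or cytotoxic effects.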
Potency means the concentration at half of the fitted maximal effect.

Structure (SMILES)	IkBa stabilization activation	Potency
CCOc1ccccc1NC(=O)n1ncc2cc(Cl)ccc21	inconclusive: 1.34% [signal inhibitor]	
Cc1cc2ccccc2n1CCNC(=O)c1ccc(F)cc1	inconclusive: 3.29% [signal inhibitor]	
Fc1ccc(-c2cn3cc(Cc4ccccc4Cl)sc3n2)cc1		inconclusive: 1.58 µM [signal inhibitor, full curve]
Cc1cc(O)c(C(c2ccc(Cl)cc2)N2CCN(c3ccccc3)CC2)c(=O)n1Cc1ccco1 (centres undefined)	inconclusive: 14.3% [signal activator]	
CC1=C(c2ccc(C)cc2)S(=O)(=O)N(Cc2ccc(C(=O)Nc3ccccc3C)cc2)C1=O	inconclusive: -0.227% [signal inhibitor]	
c1ccc2c(c1)oc1c(NCCCN3CCOCC3)ncnc12	inconclusive: 0.486% [signal inhibitor]	
Cc1cc(C)n2nc(SCC(=O)c3ccccc3)nc2n1		inconclusive: 12.6 µM [signal inhibitor, partial curve]
COc1ccc(NC(=O)Cn2c(=O)oc3cc(S(=O)(=O)N4CCCCC4C)ccc32)cc1 (centres undefined)	inconclusive: -0.431% [signal inhibitor]	
COc1ccc(-c2csc(N3CCC(C(N)=O)(N4CCCCC4)CC3)n2)cc1	inactive: -1.33%	
Cc1oc(-c2ccc(C(=O)NC(C)c3ccccc3)cc2)nc1CS(=O)(=O)c1ccccc1 (centres undefined)	inactive: -0.409%	
CCOC(=O)c1[nH]cc(-c2ccccc2)c1N1CCOCC1	inactive: -2.2%	
COC(=O)c1ccccc1NC(=O)CCCN1C(=O)C(c2ccccc2)Oc2cccnc21 (centres undefined)	inconclusive: 3.3% [signal inhibitor]	
CC(C)c1cc(C(=O)NC2CCCCC2)no1		inconclusive: 20 µM [signal inhibitor, partial curve]
COC(=O)c1scc(-c2ccc(C)cc2)c1S(=O)(=O)Nc1cc(Cl)c(OC)cc1OC	inconclusive: -3.01% [signal inhibitor]	
CCCCOc1ccc(Cn2c(=O)sc3ccccc32)cc1OC	inconclusive: 12.4% [signal inhibitor]	
Cc1ccccc1CCNC(=O)c1ccc2c(c1)nc1n2CCOC1	inactive: -0.724%	
CCOC(=O)c1ccccc1NC(=O)c1cc(S(=O)(=O)N2CCOCC2)ccc1F	inactive: 1.33%	
O=C(NCc1ccc2c(c1)OCO2)c1cccc(C(=O)NCc2ccc3c(c2)OCO3)c1	inconclusive: 4.53% [signal inhibitor]	
O=[N+]([O-])c1ccc(NN=C2c3ccccc3Cc3ccccc32)c([N+](=O)[O-])c1	inactive: 2.83% [at 11.4 µM, scaled: untreated 0%, proteasome inhibitor 100%]	
